Measured values: paper PMC9616786 (Cellular and Molecular Life Sciences, 2022)

Target: T1, Calmodulin from bovine brain (bovine, UniProt P62157)
T1 construct: calmodulin, bovine, purified from brain; also called purified bovine brain CaM; CaM; source: bought: Sigma-Aldrich Cat#208694, purified from bovine brain
Assay: SPR; Biacore 3000, 25 °C; biotinylated peptides captured on a streptavidin chip; CaM injected at 13.2 nM to 9.6 µM; HBSP (10 mM HEPES pH 7.4, 150 mM NaCl, 0.005% P20) with 1 mM CaCl2; equilibrium analysis, apparent KD
Details: both partners purified

binding result: binds
B1: Peptide INF2 […], biotinylated (for surface plasmon resonance) (peptide)
peptide: not shown
modifications: N-terminal K biotinylated in the ε-amino group
notes: added N-terminal K (biotinylated) and two G residues as spacer; INF2, human, […] (the full N-terminal extension); also called longer peptide encompassing […]; source: synthetic peptide, bought: pepMic Co., Ltd
